This is an account of results in the antibiotic and cytotoxicity screens of Wong et al. (2023).

This is one part of the list.

One experiment relates to HSkMC. Briefly: cytotoxicity call (relative viability < 0.9). The settings on record: 10 µM.
Another experiment deals with HepG2. The experiment can be described thus: cytotoxicity call (relative viability < 0.9). The settings on record: 10 µM.
In the next experiment the test system is S. aureus RN4220. Briefly: growth inhibition call (relative growth <= 0.2). As to conditions: 50 µM.

Consider `C[C@H]1CN([C@@H](C)CO)C(=O)Cc2cc(NC(=O)Nc3ccccc3)ccc2O[C@@H]1CN(C)Cc1ccc(C(=O)Nc2ccccc2N)cc1`, for which the cytotoxicity call with HSkMC and with HepG2 was “inactive” throughout. In addition, in the experiment with S. aureus RN4220, the growth inhibition call was “inactive”.

For `O=C(O)c1cn2cccc(O)c2n1`, the cytotoxicity call in the experiment with HSkMC and with HepG2 was “inactive” throughout. Also, the growth inhibition call with S. aureus RN4220 is “inactive”.

Take `CCCN(C)C[C@@H]1OCCCC[C@@H](C)Oc2ccc(NS(=O)(=O)c3ccc(Cl)cc3)cc2C(=O)N([C@@H](C)CO)C[C@@H]1C`: the cytotoxicity call in the experiment with HSkMC and in the experiment with HepG2 was “inactive” throughout. The growth inhibition call in the experiment on S. aureus RN4220 was “inactive”.

`C[C@H](CO)N1C[C@H](C)[C@H](CN(C)C(=O)Nc2cccc3ccccc23)Oc2c(NC(=O)Nc3cccc4ccccc34)cccc2C1=O`: the cytotoxicity call with HSkMC and in the experiment with HepG2 was “inactive” throughout. For the same compound, the growth inhibition call with S. aureus RN4220 was “inactive”.

Take `COc1ccc(S(=O)(=O)Nc2ccc3c(c2)C(=O)N([C@@H](C)CO)C[C@@H](C)[C@@H](CN(C)S(=O)(=O)c2ccc(C)cc2)O3)cc1`: the cytotoxicity call with HSkMC and in the experiment with HepG2 was “inactive” in each case. The growth inhibition call with S. aureus RN4220 is “inactive”.

For the compound `C[C@@H]1CCCCO[C@H](CN(C)Cc2ccc(C(F)(F)F)cc2)[C@H](C)CN([C@@H](C)CO)C(=O)c2cc(NS(=O)(=O)c3cn(C)cn3)ccc2O1`, the cytotoxicity call in the experiment with HSkMC and in the experiment with HepG2 was “inactive” throughout. Further, the growth inhibition call with S. aureus RN4220 was “inactive”.

On to `COc1ccc(S(=O)(=O)N(C)C[C@H]2Oc3ccc(NC(=O)Nc4c(C)noc4C)cc3C(=O)N([C@H](C)CO)C[C@@H]2C)cc1`, for which the cytotoxicity call in the experiment on HSkMC and in the experiment with HepG2 was “inactive” throughout. For the same compound, the growth inhibition call in the experiment with S. aureus RN4220 is “inactive”.

In the case of `C[C@H](CO)N1C[C@H](C)[C@@H](CN(C)Cc2ccc(-c3ccccc3)cc2)Oc2ccc(NS(=O)(=O)c3ccc(Cl)cc3)cc2C1=O`, the cytotoxicity call with HSkMC and in the experiment on HepG2 was “active” each time. For the same compound, the growth inhibition call with S. aureus RN4220 was “inactive”.

Take `O=C(CN1CCOCC1)N[C@@H]1CC[C@@H](CCNS(=O)(=O)c2ccccc2F)O[C@@H]1CO`: the cytotoxicity call in the experiment on HSkMC and in the experiment with HepG2 was “inactive” each time. Besides, the growth inhibition call in the experiment with S. aureus RN4220 is “inactive”.

For the compound `COc1ccc(CN(C)C[C@@H]2OCCCC[C@H](C)Oc3ccc(NC(=O)NC(C)C)cc3C(=O)N([C@@H](C)CO)C[C@H]2C)cc1`, the cytotoxicity call in the experiment with HSkMC and in the experiment with HepG2 was “inactive” throughout. Also, in the experiment on S. aureus RN4220, the growth inhibition call was “inactive”.

As to `C[C@H]1CN([C@@H](C)CO)C(=O)Cc2cc(NC(=O)Nc3ccc(F)cc3)ccc2O[C@@H]1CN(C)Cc1ccc(Cl)c(Cl)c1`, the cytotoxicity call in the experiment on HSkMC and with HepG2 was “active” throughout. The growth inhibition call with S. aureus RN4220 is “inactive”.

Consider `CCS(=O)(=O)Nc1ccc2c(c1)C(=O)N(C)C[C@H](OC)[C@H](C)CN(Cc1ccccn1)[C@@H](C)CO2`, for which the cytotoxicity call in the experiment with HSkMC and in the experiment on HepG2 was “inactive” each time. In addition, the growth inhibition call in the experiment with S. aureus RN4220 is “inactive”.

In the case of `Cc1cc(NS(=O)(=O)c2ccc(N)cc2)no1`, the cytotoxicity call in the experiment with HSkMC and in the experiment on HepG2 was “inactive” in each case. Also, the growth inhibition call in the experiment on S. aureus RN4220 was “inactive”.

As to `Cc1cc(C(=O)Nc2cccc3c2O[C@H](CN(C)C(=O)Nc2ccc4c(c2)OCO4)[C@@H](C)CN([C@@H](C)CO)C3=O)n(C)n1`, the cytotoxicity call in the experiment on HSkMC and in the experiment with HepG2 was “inactive” in each case. Besides, the growth inhibition call in the experiment with S. aureus RN4220 was “inactive”.

With `COc1cccc(C#Cc2cnc3c(c2)C(=O)N([C@@H](C)CO)C[C@H](C)[C@H](CN(C)C(=O)C2CCC2)O3)c1`, the cytotoxicity call in the experiment with HSkMC and with HepG2 was “inactive” each time. For the same compound, the growth inhibition call with S. aureus RN4220 was “inactive”.

For `CC(C)(C)c1csc(-c2ccc(-c3cccs3)s2)n1`, the cytotoxicity call with HSkMC and in the experiment on HepG2 was “inactive” each time. Moreover, the growth inhibition call in the experiment on S. aureus RN4220 is “inactive”.

With `C[C@H](CO)N1C[C@H](C)[C@H](CN(C)C(=O)Nc2ccc(F)cc2)OCCCC[C@H](C)Oc2ccc(NC(=O)Nc3cccc4ccccc34)cc2C1=O`, the cytotoxicity call in the experiment on HSkMC and in the experiment with HepG2 was “inactive” throughout. Further, in the experiment on S. aureus RN4220, the growth inhibition call was “inactive”.

Consider `C[C@H]1CN([C@@H](C)CO)C(=O)c2cc(NS(=O)(=O)c3ccc(Cl)cc3)ccc2O[C@H]1CN(C)S(=O)(=O)c1cn(C)cn1`, for which the cytotoxicity call in the experiment on HSkMC and in the experiment on HepG2 was “inactive” each time. In addition, in the experiment with S. aureus RN4220, the growth inhibition call was “inactive”.

Regarding `COc1ccc(S(=O)(=O)N(C)C[C@@H]2Oc3ccc(NS(=O)(=O)c4c(C)noc4C)cc3C(=O)N([C@H](C)CO)C[C@@H]2C)cc1`, the cytotoxicity call in the experiment with HSkMC was “inactive”. The cytotoxicity call with HepG2 was “active”. For the same compound, the growth inhibition call in the experiment on S. aureus RN4220 is “inactive”.

For `COc1ccc(S(=O)(=O)N(C)C[C@H]2Oc3c(NS(C)(=O)=O)cccc3C(=O)N([C@H](C)CO)C[C@@H]2C)cc1`, the cytotoxicity call in the experiment with HSkMC and in the experiment on HepG2 was “inactive” each time. The growth inhibition call in the experiment with S. aureus RN4220 was “inactive”.

For the compound `COc1ccc(S(=O)(=O)Nc2ccc3c(c2)C(=O)N([C@H](C)CO)C[C@@H](C)[C@@H](CN(C)S(C)(=O)=O)OCCCC[C@@H](C)O3)cc1`, the cytotoxicity call in the experiment on HSkMC (human skeletal muscle cells) and with HepG2 was “inactive” each time. Also, the growth inhibition call in the experiment with S. aureus RN4220 was “inactive”.

For the compound `COc1ccc(S(=O)(=O)N(C)C[C@H]2OCCCC[C@H](C)Oc3ccc(NC(=O)NC4CCCCC4)cc3C(=O)N([C@H](C)CO)C[C@H]2C)cc1`, the cytotoxicity call in the experiment with HSkMC and with HepG2 was “inactive” each time. The growth inhibition call with S. aureus RN4220 is “inactive”.

For the compound `C[C@H]1CN([C@@H](C)CO)C(=O)Cc2cc(NC(=O)CCC(F)(F)F)ccc2O[C@H]1CN(C)C(=O)Nc1ccc(C(F)(F)F)cc1`, the cytotoxicity call in the experiment with HSkMC and in the experiment with HepG2 was “inactive” each time. In addition, in the experiment on S. aureus RN4220, the growth inhibition call is “inactive”.

As for `C[C@H]1CCCCO[C@@H](CN(C)Cc2ccccc2)[C@@H](C)CN([C@@H](C)CO)C(=O)c2cc(NS(=O)(=O)c3cccs3)ccc2O1`, the cytotoxicity call with HSkMC was “inactive”. The cytotoxicity call in the experiment with HepG2 was “active”. The growth inhibition call in the experiment on S. aureus RN4220 was “inactive”.
